From the supplement of paper PMC4967469
The IC50 comes from the fitted curve, where viability falls to half of the control; fits outside the tested doses are given as limits. AUC is the area under the same curve over the 256-fold range up to the top dose, as a fraction: 1 means no effect, lower means more sensitive. The top dose, if marked as inferred, is not printed in the source and was worked back from the curve model.

Columns and labels:
Test in all cases: Viability of human cancer cell lines after 72 h of drug (GDSC screen)
GSK-1904529A = compound: CCc1cc(Nc2nccc(-c3c(-c4ccc(OC)c(C(=O)Nc5c(F)cccc5F)c4)nc4ccccn34)n2)c(OC)cc1N1CCC(N2CCN(S(C)(=O)=O)CC2)CC1 [GSK-1904529A]; settings: top dose 1.024 µM; top dose inferred
Protocol: (§1)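 Human cancer cell lines in 384-well plates, medium with 10% serum, drug for 72 h over a 256-fold dose range (nine 2-fold or five 4-fold steps up to the top dose). Adherent lines were fixed and stained with the nucleic acid dye Syto60, suspension lines read with resazurin; signal relative to control wells, capped at 0 and 100%. One two-parameter sigmoid per drug and line, fitted in a mixed model over all curves with the slope shared within a line.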

BMS-509744 = compound: COc1cc(C)c(Sc2cnc(NC(=O)c3ccc(CNC(C)C(C)(C)C)cc3)s2)cc1C(=O)N1CCN(C(C)=O)CC1 [BMS-509744]; settings: top dose 10.24 µM; top dose inferred
Protocol: as §1

PFI-1 = compound: COc1ccccc1S(=O)(=O)Nc1ccc2c(c1)CN(C)C(=O)N2 [PFI-1]; settings: top dose 10 µM; top dose inferred
Protocol: as §1

Tipifarnib = compound: Cn1cncc1[C@@](N)(c1ccc(Cl)cc1)c1ccc2c(c1)c(-c1cccc(Cl)c1)cc(=O)n2C [Tipifarnib]; settings: top dose 16 µM; top dose inferred
Protocol: as §1

NG-25 = compound: CCN1CCN(Cc2ccc(NC(=O)c3ccc(C)c(Oc4ccnc5[nH]ccc45)c3)cc2C(F)(F)F)CC1 [NG-25]; settings: top dose 10.24 µM; top dose inferred
Protocol: as §1

| Cell Line | AUC (GSK-1904529A) | IC50 (GSK-1904529A) [µM] | AUC (BMS-509744) | IC50 (BMS-509744) [µM] | AUC (PFI-1) | IC50 (PFI-1) [µM] | AUC (Tipifarnib) | IC50 (Tipifarnib) [µM] | AUC (NG-25) | IC50 (NG-25) [µM] |
| --- | --- | --- | --- | --- | --- | --- | --- | --- | --- | --- |
| EB-3 (Burkitt lymphoma, suspension) | 0.976 | > 1.02 | 0.91 | > 10.2 | 0.813 | 6.53 | 0.738 | 5.43 | 0.678 | 2.2 |
| EC-GI-10 (oesophagus, adherent) | 0.989 | > 1.02 | 0.989 | > 10.2 | 0.896 | > 10 | 0.989 | > 16 | 0.97 | > 10.2 |
| EJM (lymphoid neoplasm, semi-adherent) | 0.992 | > 1.02 | 0.966 | > 10.2 | 0.922 | > 10 | 0.959 | > 16 | 0.877 | 7.49 |
| EKVX (lung adenocarcinoma, adherent) | 0.955 | > 1.02 | 0.932 | > 10.2 | 0.897 | > 10 | 0.802 | > 16 | 0.961 | > 10.2 |
| EM-2 (chronic myeloid leukaemia, suspension) | 0.977 | > 1.02 | 0.903 | > 10.2 | 0.792 | 5.21 | 0.79 | 8.21 | 0.07 | < 0.04 |
| ES1 (Ewing sarcoma, adherent) | 0.986 | > 1.02 | 0.86 | 8.36 | 0.922 | > 10 | 0.602 | 1.89 | 0.847 | 7.36 |
| ES3 (Ewing sarcoma, adherent) | 0.935 | > 1.02 | 0.849 | 8.35 | 0.745 | 3.29 | 0.785 | 7.24 | 0.906 | > 10.2 |
| ES4 (Ewing sarcoma, adherent) | 0.981 | > 1.02 | 0.813 |  | 0.87 | > 10 | 0.486 | 0.913 | 0.78 | 4.87 |
| ES5 (Ewing sarcoma, adherent) | 0.977 | > 1.02 | 0.915 | > 10.2 | 0.732 | 3.2 | 0.7 | 4.01 | 0.767 | 4.37 |
| ES6 (Ewing sarcoma, adherent) | 0.964 | > 1.02 | 0.67 | 2.15 | 0.959 | > 10 | 0.43 | 0.614 | 0.829 | 8.52 |
| ES7 (Ewing sarcoma, adherent) | 0.915 | > 1.02 | 0.92 | > 10.2 | 0.858 | 8.54 | 0.597 | 1.86 | 0.73 | 2.96 |
| ES8 (Ewing sarcoma, adherent) | 0.982 | > 1.02 | 0.796 | 4.39 | 0.883 | 9.35 | 0.72 | 3.98 | 0.747 | 3.07 |
| ES-2 (ovary, adherent) | 0.991 | > 1.02 | 0.984 | > 10.2 | 0.99 | > 10 | 0.986 | > 16 | 0.593 | 1.11 |
| ETK-1 (biliary tract, adherent) | 0.977 | > 1.02 | 0.64 | 1.65 | 0.809 | 6.1 | 0.242 | 0.16 | 0.711 | 2.76 |
| EVSA-T (breast, adherent) | 0.991 | > 1.02 | 0.94 | > 10.2 | 0.873 | 7.3 | 0.853 | 9.79 | 0.697 | 2.09 |
| EW-1 (Ewing sarcoma, semi-adherent) | 0.961 | > 1.02 | 0.755 | 3.23 | 0.988 | > 10 | 0.786 | 6.32 | 0.773 | 3.65 |
| EW-3 (Ewing sarcoma, adherent) | 0.982 | > 1.02 | 0.862 | > 10.2 | 0.815 | 6.5 | 0.906 | > 16 | 0.814 | 6.59 |
| EW-11 (Ewing sarcoma, adherent) | 0.971 | > 1.02 | 0.85 | > 10.2 | 0.842 | > 10 | 0.884 | > 16 | 0.821 | 8.3 |
| EW-13 (Ewing sarcoma, suspension) | 0.983 | > 1.02 | 0.901 | > 10.2 | 0.978 | > 10 | 0.666 | 3.06 | 0.406 | 0.342 |
| EW-16 (Ewing sarcoma, adherent) | 0.936 | > 1.02 | 0.662 | 1.84 | 0.892 | > 10 | 0.588 | 1.76 | 0.878 | > 10.2 |
| EW-18 (Ewing sarcoma, suspension) | 0.985 | > 1.02 | 0.973 | > 10.2 | 0.965 | > 10 | 0.413 | 0.566 | 0.776 | 4.38 |
| EW-24 (Ewing sarcoma, semi-adherent) | 0.992 | > 1.02 | 0.99 | > 10.2 | 0.958 | > 10 | 0.973 | > 16 | 0.987 | > 10.2 |
| EoL-1-cell (haematopoietic neoplasm, suspension) | 0.985 | > 1.02 | 0.912 | > 10.2 | 0.831 | 5.36 | 0.686 | 3.08 | 0.019 | < 0.04 |
| Farage (B-cell lymphoma, suspension) | 0.992 | > 1.02 | 0.955 | > 10.2 | 0.992 | > 10 | 0.781 | 5.41 | 0.363 | 0.289 |
| GAK (melanoma, adherent) | 0.962 | > 1.02 | 0.945 | > 10.2 | 0.886 | > 10 | 0.713 | 3.86 | 0.884 | 10.2 |

| Cell Line | AUC (GSK-1904529A) | IC50 (GSK-1904529A) [µM] | AUC (BMS-509744) | IC50 (BMS-509744) [µM] | AUC (PFI-1) | IC50 (PFI-1) [µM] | AUC (Tipifarnib) | IC50 (Tipifarnib) [µM] | AUC (NG-25) | IC50 (NG-25) [µM] |
| --- | --- | --- | --- | --- | --- | --- | --- | --- | --- | --- |
| GB-1 (glioma, adherent) | 0.98 | > 1.02 | 0.858 | > 10.2 | 0.975 | > 10 | 0.567 | 1.57 | 0.745 | 3.73 |
| GDM-1 (acute myeloid leukaemia, suspension) | 0.985 | > 1.02 | 0.833 | 6.21 | 0.849 | 7.03 | 0.35 | 0.393 | 0.103 | < 0.04 |
| GI-1 (glioma, adherent) | 0.987 | > 1.02 | 0.892 | > 10.2 | 0.749 | 3.13 | 0.705 | 3.68 | 0.833 | 6.21 |
| GI-ME-N (neuroblastoma, adherent) | 0.97 | > 1.02 | 0.737 | 3.99 | 0.732 | 3.73 | 0.907 | > 16 | 0.742 | 4.15 |
| GOTO (neuroblastoma, adherent) | 0.974 | > 1.02 | 0.852 | 9.71 | 0.794 | 5.33 | 0.833 | 12.4 | 0.794 | 5.44 |
| GR-ST (lymphoblastic leukaemia, suspension) | 0.975 | > 1.02 | 0.904 | > 10.2 | 0.696 | 2.51 | 0.644 | 2.72 | 0.801 | 6.26 |
| GRANTA-519 (B-cell lymphoma, suspension) | 0.991 | > 1.02 | 0.987 | > 10.2 | 0.963 | > 10 | 0.868 | 12.2 | 0.844 | 6.28 |
| GT3TKB (stomach, adherent) | 0.988 | > 1.02 | 0.929 | > 10.2 | 0.73 | 2.56 | 0.628 | 2.14 | 0.973 | > 10.2 |
| H9 (lymphoid neoplasm, suspension) | 0.989 | > 1.02 | 0.929 | > 10.2 | 0.783 | 3.44 | 0.696 | 3.15 | 0.866 | 6.58 |
| HA7-RCC (kidney, adherent) | 0.981 | > 1.02 | 0.854 | 9.38 | 0.886 | > 10 | 0.522 | 1.15 | 0.811 | 6.11 |
| HAL-01 (lymphoblastic leukaemia, suspension) | 0.989 | > 1.02 | 0.967 | > 10.2 | 0.744 | 2.82 | 0.781 | 5.83 | 0.59 | 1.09 |
| HC-1 (hairy cell leukaemia, suspension) | 0.983 | > 1.02 | 0.941 | > 10.2 | 0.803 | 4.74 | 0.535 | 1.24 | 0.619 | 1.34 |
| HCC1187 (breast, suspension) | 0.988 | > 1.02 | 0.969 | > 10.2 | 0.914 | > 10 | 0.755 | 5.18 | 0.91 | > 10.2 |
| HCC2157 (breast, suspension) | 0.914 | > 1.02 | 0.967 | > 10.2 | 0.889 | > 10 | 0.379 | 0.456 | 0.98 | > 10.2 |
| HCC2218 (breast, suspension) | 0.982 | > 1.02 | 0.925 | > 10.2 | 0.892 | > 10 | 0.8 | 10.1 | 0.869 | > 10.2 |
| HCE-4 (oesophagus, adherent) | 0.909 | > 1.02 | 0.934 | > 10.2 | 0.971 | > 10 | 0.642 | 2.31 | 0.991 | > 10.2 |
| HD-MY-Z (Hodgkin lymphoma, adherent) | 0.985 | > 1.02 | 0.886 | > 10.2 | 0.862 | 8.65 | 0.944 | > 16 | 0.806 | 5.26 |
| HDLM-2 (Hodgkin lymphoma, suspension) | 0.987 | > 1.02 | 0.956 | > 10.2 | 0.909 | > 10 | 0.888 | > 16 | 0.989 | > 10.2 |
| HH (T-cell leukaemia, suspension) | 0.955 | > 1.02 | 0.886 | > 10.2 | 0.573 | 1.06 | 0.386 | 0.438 | 0.631 | 1.66 |
| HL-60 (acute myeloid leukaemia, suspension) | 0.99 | > 1.02 | 0.912 | > 10.2 | 0.845 | 6.15 | 0.684 | 3.07 | 0.956 | > 10.2 |
| HOP-62 (lung adenocarcinoma, adherent) | 0.985 | > 1.02 | 0.814 | 5.55 | 0.777 | 4.01 | 0.677 | 3.11 | 0.805 | 5.15 |
| HSC-39 (stomach, suspension) | 0.991 | > 1.02 | 0.937 | > 10.2 | 0.888 | 8.6 | 0.991 | > 16 | 0.991 | > 10.2 |
| HT (B-cell lymphoma, suspension) | 0.986 | > 1.02 | 0.953 | > 10.2 | 0.873 | 8.28 | 0.677 | 2.98 | 0.834 | 5.94 |
| HT-144 (melanoma, adherent) | 0.979 | > 1.02 | 0.735 | 3.27 | 0.873 | > 10 | 0.492 | 0.951 | 0.955 | > 10.2 |
| HUTU-80 (digestive system, adherent) | 0.975 | > 1.02 | 0.773 | 3.33 | 0.947 | > 10 | 0.303 | 0.313 | 0.824 | 4.75 |
